From the RNAGym collection of RNA variant scans (doi:10.1101/gad.245936.114)
This sample is rich in variants without activity.

B1: tRNA (parent)
chain: CUCUCGGUAGCCAAGUUGGUUUAAGGCGCAAGACUUUAAUUUAUCACUACGAAAUCUUGAGAUCGGGCGUUCGACUCGCCCCCGGGAGAUUUUUUCCUCGAGCAA

Variants of: B1
Assay: nonsense suppression (GFP-seq) (ratio to wild type); higher = more function; SUP4oc tRNA, yeast GFP reporter sort-seq
Method in brief: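 To measure nonsense suppression, tRNA variants from a library carrying ~3% random mutations were integrated into the yeast genome alongside RFP and a GFP ochre reporter under galactose control. Growth took place in raffinose/galactose medium supplemented with 80 mg/L adenine, followed by sorting into GFP/RFP bins and Illumina sequencing of each bin (phred ≥30). For each variant with ≥100 reads and ≥30 cells, the bin median GFP/RFP values were weighted by its estimated cell share per bin and referenced to the unmutated parent tRNA.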

Nonsense suppression, ≤ 0.026:
CUCUUGGUAGCCAAGUUGGUUUAAGGCGCAAGACUUUAAUUUAUCACUACGAAAUCUUGCGAUCGGGCGUUCGACUCGCCCCCGGGUGAUUUUUUCCUCGAGCAA
CUCUUGGUAGCCAAGUUGGUUUAAGGCGCAAGACUUUAAUUUAUCACUACGAAAUCUUGCGAUCGGGCGUUCGACUCGCCCCAGGGAGAUUUUUUCCUCGAGCAA
CUCUUGGUAGCCAAGUUGGUUUAAGGCGCAAGACUUUAAUUUAUCACUACGAAAUCUUGUGAUCCGGCGUUCGACUCGCCCCCGGGAGAUUUUUUCCUCGAGCAA
CUCUUGGUAGCCAAGUUGGUUUAAGGCGCAAGACUUUAAUUUAUCACUACGAAAUCUUGAGCUCCGGCGGACGACUCGCCCCCGGGAGAUUUUUUCCUCGAGCAA
CUCUUGGUAGCCAAGUUGGUUUAAGGCGCAAGACUUUAAUUUAUCACUACGAAAUCUUGAGCUCGGUCGUUCGACUCGCCCCCGGGAGAUUUUUUCCUCGAGCAA
CUCUUGGUAGCCAAGUUGGUUUAAGGCGCAAGACUUUAAUUUAUCACUACGAAAUCUUGAGUUCGGGCGUUCGACUCGCCCCCGGGAGAUUUUUUCCUCGAGCAA
CUCUUGGUAGCCAAGUUGGUUUAAGGCGCAAGACUUUAAUUUAUCACUACGAAAUCUUGAGAUCGGGCGUUCGGCUAGCCCCCGGGAGAUUUUUUCCUCGAGCAA
CUCUUGGUAGCCAAGUUGGUUUAAGGCGCAAGACUUUAAUUUAUCACUACGAAAUCUUGAGAUCGGGCGUUCGUCUCGCCCCCGGGAGAUUUUUUCCUCGAGCAA
CUCUUGGUAGCCAAGUUGGUUUAAGGCGCAAGACUUUAAUUUAUCACUACGAAAUCUUGAGAUCGGGCGUUCGACUCGCCCCCGGGAGGUUUUUUCCUCGAGCAA
CUCUUGGUAGACAAGUUGGAUUAAGGGGCAAGAUUUUAAUUUAUCACUACGAAAGCUUGAGAUCGGGCGUUCGACUCGCCCCCGGGAGAUUUUUUCCUCGAGCAA
CUCUUGGUAGACAAGUUGGUGUAAGGCGCAAGACUUUAAUUUAUCACUACGAAAUCUUGAGAUCGGGCGUUCGACUCGCCCCCGGGUGAUUUUUUCCUCGAGCAA
CUCUUGGUAGUCAAGUUGGUUUAAGGCGCAAGACUUUAAUUUAUCACUACGAAAUAUUGAGAUCGGGCGUUCGACUCGCCCCCGGGAGAUUUUUUCCUCGAGCAA
CUCUUGGUAGUCAAAUUUGAUUAAGGCGCUAGACUUUAAUUUAUCACUACGAAAUUUUGAGAUCGGGCGUUCGACACGCCCCCGGAAGAUUUUUUCCUCGAGCAA
CUCUUGGUAGUCAAGUUGGUUUAAGGCGCAAGACUUUAAUUUAUCACUACGAAAUCUUGAGAUCGAGCGUUCGACUCGCCCCCGGGACAUUUUUUCCUCGAGCAA
CUCUUGGUAGUCAAGUUGGUUUAAGGCGCAAGACUUUAAUUUAUCACUACGAAAUCCUGAGAUCGGGCGUUCGACUCGCCCCCGGGAGAUUUUUUCCUCGAGCAA
CUCUUGGUAGCAAAGUUGGUUUAAGGCGCAAGACUUUAAUUUAUCACUACGAAAUCUUGAGAUCGGGCGUUCGACUCGCCCCCGGGAGAUUUUUUCCUCGAGCAA
CUCUUGGUAGCAAAGUUGGUUUAAGGCGCAAGACUUUAAUUUAUCACUACGAAAUCUUGAGGUCGCGCGUUCGACUCGCCGUCGGGAGAUUUUUUCCUCGAGCAA
CUCUUGGUAGCAAAGUUGGUUUAAGGCGCAAGACUUUAAUUUAUCACUACGAAAUCUUGAGAUCGGGCGUUCGACGCGCCCCCGGGAGAUUUUUUCCUCGAGCAA
CUCUUGGUAGCUAAGUUGGUUUAAGGCGCAAGACUUUAAUUUAUCACUACGAAAUCUUGAGAUCGGGCGUUCGACUCGCCCCCCGGAGAUUUUUUCCUCGAGCAA
CUCUUGGUAGCUAAGUUGGUUUAAGGCGCAAGACUUUAAUUUAUCACUACGAAAUCUUGAGAUCGGGCGUUCGACUCGCCCCCGUGAGAUUUUUUCCUCGAGCAA
CUCUUGGUAGCCAAGUUGGUUUAAGGAGCGAGACUUUAAUUUAUCACUACGAAAUCUUGGGAUCGGGCGUUCGACUCGCCCCCGGGAGAUUUUUUCCUCGAGCAA
CUCUUGGUAGCCAAGUUGGUUUAAGGUGCAAGACUUUAAUUUAUCACUACGAAAUCUUGAGAUCGGUCGUUCGACUCGCCCCCGGGAGAUUUUUUCCUCGAGCAA
CUCUUGGUAGCCAAGUUGGUUUAAGGCGAAAGACUUUAAUUUAUCACUACGAAAUCUUGAGAUCGGGCGUUCGAAUCGCCCCCGGGAGAUUUUUUCCUCGAGCAA
CUCUUGGUAGCCAAGUUGGUUUAAGGCGAAAGACUUUAAUUUAUCACUACGAAAUCUUCAGAUCGGGCGUUCGACUCGCCCCCGGGAGAUUUUUUCCUCGAGCAA
CUCUUGGUAGCCAAGUUGGUUUAAGGCGUAAGACUUUAAUUUAUCACUACGAAAUCUUGGGAUCGGGCUUUCGACUCGCCCCCGGGAGAUUUUUUCCUCGAGCAA
CUCUUGGUAGCCAAGUUGGUUUAAGGCGUAAGAUUUUAAUUUAUCACUACGAAAUCUUGAGAUCGGGCGUUCGACUCGCCCCCGGGCGAUUUUUUCCUCGAGCAA
CUCUUGGUAGCCAAGUUGGUUUAAGGCGCAAGAAUUUAAUUUAUCACUACGAAAUCUUGGGAUCGGGCGUUCGACUCGCCCCCGGGAGAUUUUUUCCUCGAGCAA
